# PubChem BioAssay AID1347073 (National Center for Advancing Translational Sciences (NCATS), 2019)
# The whole screen tested about 45,000 compounds, of which about 200 (0.44%) were called active. About 7% were inconclusive and are not listed. The call rests on the fitted dose curve; in most records, active means well fitted activation curve with a large enough effect; inconclusive means small, poorly fitted or top-dose-only effect; inactive means no such curve, though single readings can be large or run the other way. The list shows a part of the results.
# Assay: qHTS of TDP-43 Inhibitors: NCGC Sytravon Library Screen; further: 0% is about no effect; nearly all actives have a fitted effect of over 55% in size
# Details: yeast TDP-43 toxicity rescue, BacTiter-Glo growth, 24 h; at 46.1 µM (top of the series)
# In short: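 TDP-43-expressing yeast, pregrown in raffinose, seeded at OD600 0.02 in galactose medium with compound for 24 hr at 30 deg C. Growth read by BacTiter-Glo luminescence, so rescue of toxicity appears as activation.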
row,Compound,growth rescue (activation)
1,O=C1CC(=O)N(Cc2ccccc2)C(=S)N1,inactive: 21.3%
2,Cc1cccc(CNCCc2c[nH]c3ccccc23)c1,inactive: 2.56%
3,COc1cc(OC)c(OC)cc1/C=C1/C(=O)NC(=O)N(Cc2ccccc2)C1=O,inactive: -6.89%
4,COc1ccc(Cl)cc1C(=O)C1CCCN(CCO)C1 (stereo not given),inactive: 6.09%
5,CC1=C2C(=O)C3C(CC=C4CC(OC5OC(O)C(O)C(O)C5CO)CCC43C)C2CCC12OC1CC(C)CNC1C2C (stereo not given),inactive: -2.4%
6,CCN(CC)C(=O)c1ccc(NC(=O)CNC(C)c2cccc3ccccc23)cc1 (stereo not given),inactive: -4.24%
7,c1ccc2c(CCNC3CCCCC3)c[nH]c2c1,inactive: 11.3%
8,C[C@]12CC[C@H](O)CC1=CC(=O)C1C2CC[C@]2(C)C(=O)CCC12 (stereo not given in full),inactive: 20.6%
9,C[C@]12CC[C@H](O)CC1=CCC1C2CC[C@@]2(C)C1C[C@@H](O)[C@@H]2O (stereo not given in full),inactive: 7.13%
10,C[C@]12CC[C@@H](O)CC1=CCC1C2CC[C@@]2(C)C1CC[C@@H]2N (stereo not given in full),inactive: -3.21%
11,CCc1ccccc1NC(=O)CNC1CCCCC1,inactive: 5.09%
12,CN(C)c1ccc([P+](=O)c2ccc(N(C)C)cc2)cc1,inactive: 5.93%
13,CN(C)C(Cc1ccccc1)C(=O)c1ccccc1 (stereo not given),inactive: -1.66%
14,CC(C)OC(=O)Nc1ccc(N=C(N)N[N+](=O)[O-])cc1,inactive: 6.83%
15,O=c1[nH]c(=S)[nH]c(O)c1/C=C1/C=c2ccccc2=N1,inactive: 2.54%
16,Cc1cc(/C=C2/C(=O)NC(=O)N(C)C2=O)c(C)n1-c1ccccc1,inactive: 11.2%
17,CCN(CC)c1ccc(CN2CC=C(c3ccc(F)cc3)CC2)cc1,inactive: 3.37%
18,OC1(c2ccccc2)CCNC2CCCCC21 (stereo not given),inactive: 4.73%
19,CCCCn1c(O)c(C(C)=Nc2ccc(OCC)cc2)c(=O)[nH]c1=O,inactive: 3.56%
20,CCN1C(=O)C(=Cc2ccc(C)s2)C(=O)N(CC)C1=S,inactive: 9.57%
21,O=c1cc(CN2CC=C(c3ccccc3)CC2)c2c(ccc3ccccc32)o1,inactive: -10.7%
22,C(=N\NC1=NCCCCC1)/c1c[nH]c2ccccc12,inactive: 5.26%
23,CCN(CC(=O)Nc1ccc(C#N)c(Cl)c1)CC(=O)NC1CCS(=O)(=O)C1 (stereo not given),inactive: 5.17%
24,CC(C)CN1CCN(Cc2c(F)cccc2Cl)CC1CCO (stereo not given),inactive: -11.5%

row,Compound,growth rescue (activation)
1,O=C(COc1ccccc1)c1cn(Cc2ccccc2)c2ccccc12,inactive: -10.9%
2,NC(N)=N/N=C/c1cn(-c2ccccc2)nc1-c1cccs1,inactive: 24%
3,Cc1nn(Cc2ccc(Cl)cc2Cl)c(Cl)c1C(=O)O,inactive: -2.01%
4,CC(C)(C)c1ccc(C(=O)Nc2ccc(Cl)cc2C(=O)c2ccccc2)cc1,inactive: 4.59%
5,CCC(=O)OC1(c2ccccc2)C(C)CN(C)CC1C (stereo not given),inactive: 6.62%
6,CCOP(=O)(OCC)C(NS(=O)(=O)c1ccccc1)C(Cl)(Cl)Cl (stereo not given),inactive: -15.9%
7,C=CCn1c(O)c(C(CC)=NCCN2CCN(C(=S)NC)CC2)c(=O)[nH]c1=O,inactive: -6.77%
8,CCCCn1c(O)c(C(C)=Nc2ccc3c(c2)CCC3)c(=O)[nH]c1=O,inactive: 3.28%
9,C[C@]12CCC3C(CC[C@H]4C[C@H](O)CC[C@]34C)C1CCC2=O (stereo not given in full),inactive: 35%
10,CCCC[N+]12CCC(CC1)C(=C(c1ccccc1)c1ccccc1)C2,inactive: -3.49%
11,C#C[C@]1(O)CCC2C3C(CC[C@@]21C)[C@@]1(C)CC[C@@H](O)CC1=C[C@H]3O (stereo not given in full),inactive: 0.703%
12,COc1ccc(-n2nc(C(=O)NCC(=O)N3CCC4(CC3)OCCO4)c3ccccc3c2=O)c(OC)c1,inactive: 1.08%
13,O=C(c1ccccc1)c1ccc(N=Nc2c(O)[nH]c(=O)[nH]c2=O)cc1,inactive: -3.8%
14,COc1ccc(C(CNC(=O)CCc2ccsc2)N(C)C)cc1 (stereo not given),inactive: 2.6%
15,O=C(c1ccc2c(c1)OCO2)C1CCCN(CC2CCCCC2)C1 (stereo not given),inactive: -0.198%
16,CCc1ccc(-n2c(O)c(/C=N/NC(=O)c3ccncc3)c(=O)[nH]c2=O)cc1,inactive: 22.5%
17,Cc1cc(Cl)ccc1C(=O)C1CCCN(C2CCSCC2)C1 (stereo not given),inactive: 4.67%
18,CC(C)OCCCNC(=O)c1c(N)n(Cc2cccs2)c2nc3ccccc3nc12,inactive: -9.14%
19,COc1ccccc1N1C(=O)NC(=O)/C(=C\c2cnn(-c3ccccc3)c2)C1=O,inactive: -10.3%
20,COc1cccc(-n2c(/C=C/c3ccc(O)c(O)c3)nc3ccccc3c2=O)c1,inactive: 12.3%
21,Cc1ccc2c(c1)C1CN(C)CCC1N2C(=O)/C=C/c1ccc2c(c1)OCO2 (stereo not given),inactive: 3.47%
22,CCNc1cc(N2CCN(C)CC2)ccc1[N+](=O)[O-],inactive: -4.52%
23,COc1ccc(CCn2c(O)c(/C=N/NC(=O)c3ccncc3)c(=O)[nH]c2=O)cc1OC,inactive: -7.94%
24,CN1CCN(C(=O)COc2ccc3ccccc3c2)CC1,inactive: -4.18%

row,Compound,growth rescue (activation)
1,CC(=O)N1CCN(CCN=Cc2c(O)n(-c3ccc(C)cc3)c(=S)[nH]c2=O)CC1,inactive: -7.34%
2,CCc1nc2ccccc2c(=O)n1-c1ccccc1[N+](=O)[O-],inactive: 22.1%
3,CSc1ccc(C(=O)C2CCCN(C)C2)cc1 (stereo not given),inactive: 10.5%
4,NNc1n[nH]c(=S)n1N,inactive: 10.2%
5,Cc1nc2ccc(Br)cc2c(=O)n1-c1ccc([N+](=O)[O-])c(C(F)(F)F)c1,inactive: -3.67%
6,COC(=O)C1=C(N)Oc2cc(C)oc(=O)c2C12C(=O)Nc1ccccc12 (stereo not given),inactive: -1.46%
7,O=C(O)C1C2CCC(O2)C1C(=O)Nc1ccc(Cl)cc1 (stereo not given),inactive: -3.81%
8,C=CCN1C(=O)NC(=O)/C(=C/c2cc3c4c(c2)CCCN4CCC3)C1=O,inactive: 2.98%
9,COCCN1C(=O)NC(=O)/C(=C\c2ccc(Br)cc2)C1=O,inactive: 1.17%
10,NC(N)=N/N=C/c1ccc(N2CCOCC2)cc1,inactive: 19%
11,OC(CN1CC=C(c2ccccc2)CC1)c1ccccc1 (stereo not given),inactive: 9.85%
12,C[n+]1c(-c2ccccc2)cc(-c2ccc(O)cc2)cc1-c1ccccc1,inactive: -1.36%
13,CC(=NCC1CCCO1)c1c(O)n(-c2ccccc2C)c(=O)[nH]c1=O (stereo not given),inactive: -14.6%
14,COc1cccc(CC(=O)N2CCN(Cc3cccc(Cl)c3)CC2)c1,inactive: 2.39%
15,CC1CCCCN1Cc1cccnc1 (stereo not given),inactive: -19.7%
16,CC[N+](CC)(CC#CCO)CC#Cc1ccccc1,inactive: 13.9%
17,COc1ccc(CCn2c(O)c(/C=N/N3CCCCC3)c(=O)[nH]c2=O)cc1OC,inactive: 4.58%
18,Cc1cccc(-n2c(-c3ccccc3)nc3ccccc3c2=O)n1,inactive: 5.45%
19,COc1cc2c(cc1OC)C(c1c(O)n(CCc3ccccc3)c(=S)[nH]c1=O)NCC2 (stereo not given),inactive: -7.95%
20,CC(CCc1ccccc1)NCCC#N (stereo not given),inactive: 10.2%
21,O=C(C[N+]12CCN(CC1)CC2)NCCc1ccc(Cl)cc1Cl,inactive: -13.5%
22,Cc1ccccc1N1CCN(C2CCCN(C(=O)COc3ccccc3)C2)CC1 (stereo not given),inactive: -12.4%
23,O=C(Nc1c(F)cc(F)cc1F)c1cccn(Cc2ccccc2)c1=O,inactive: -26.7%
24,Cc1ccc(C)c(OCC(=O)N2CCCN(C)CC2)c1,inactive: 6.9%

row,Compound,growth rescue (activation)
1,COc1cccc(CN2CCNCC2)c1,inactive: 0.548%
2,COc1ccc(C(C)=O)cc1CC(C(=O)c1ccccc1)N(C)C (stereo not given),inactive: 6.27%
3,Cc1csc(=N)n1Cc1ccccc1,inactive: -4.7%
4,O=C1CCN(C(=O)CNC(=O)Cc2ccccc2)CC1,inactive: 5.02%
5,CC1(C)C2([N+](=O)[O-])CN3CN(C2)CC1([N+](=O)[O-])C3,inactive: -2.73%
6,CCCCn1c(O)c(C=NCCN2CCCCC2)c(=O)[nH]c1=O,inactive: -7.58%
7,O=C(CN1C(=O)CN=C(c2ccccc2Cl)c2cc(Cl)ccc21)NCc1ccco1,inactive: -16.4%
8,C[C@]12CCC3C(CC[C@H]4C[C@@H](O)CC[C@]34C)C1C[C@@H](N)[C@@H]2O (stereo not given in full),inactive: 23.6%
9,OC1(c2cccnc2)CC2CCC(C1)N2Cc1nnnn1Cc1ccccc1 (stereo not given),inactive: 15.4%
10,CC(C)c1ccc(N2C(=O)NC(=O)/C(=C/C=C/c3ccco3)C2=O)cc1,inactive: -0.388%
11,CC(C)CCNC(=O)CN1C(=O)CN=C(c2ccccc2)c2ccccc21,inactive: 29.6%
12,Cc1nn(Cc2ccccc2)c(Cl)c1C(=O)OCC(=O)N1CCCC1,inactive: -5.14%
13,O=C1NC(=O)N(c2cccc(Br)c2)C(=O)/C1=C/c1ccsc1,inactive: 2.92%
14,O=[N+]([O-])c1ccc(NCc2ccc(Cl)cc2)c2ccncc12,inactive: 16.8%
15,CCC(=NCCC(c1ccccc1)c1ccccc1)c1c(O)n(C)c(=O)n(C)c1=O,inactive: -15.8%
16,COc1cc(/C=C2\C(=O)NC(=O)N(CCc3ccc(F)cc3)C2=O)ccc1O,inactive: -9.93%
17,CCCOc1ccc(N2C(=O)CC(N3CC=C(c4ccccc4)CC3)C2=O)cc1 (stereo not given),inactive: 29.1%
18,Cn1cc(C(=O)OCC(=O)NC2(C#N)CCCCC2)c2ccccc21,inactive: 10.7%
19,CC1CCCC(C)N1/N=C/c1c[nH]c2ccc(Br)cc12 (stereo not given),inactive: 3.25%
20,COc1ccc(C(=O)C2CCCN(C3CSCCSC3)C2)c(C)c1 (stereo not given),inactive: 12.5%
21,Cn1c(O)c(/C=C2/C=CC=N2)c(=O)[nH]c1=O,inactive: -10.5%
22,COc1ccc(OC)c(N2Cc3ccccc3C2=N)c1,inactive: -19%
23,Cc1ccc(/C=C2\C(=O)NC(=O)N(CC3CCCO3)C2=O)s1 (stereo not given),inactive: -3.88%
